In article PMC9911399, “Two distinct binding modes provide the RNA-binding protein RbFox with extraordinary sequence specificity” one finds binding signal data, which are given here for 20 molecules.

To fix the notation:
T1: RBFOX1 RRM (Homo sapiens, UniProt Q9NWB1 109-208)
T1 sequence: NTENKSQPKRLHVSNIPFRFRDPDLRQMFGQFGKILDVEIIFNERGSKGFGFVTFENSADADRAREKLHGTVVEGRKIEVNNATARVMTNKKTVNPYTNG

B1: AAGGCGU (DNA:RNA)
RNA: GGGAGACCGGAAUUCAGAUUGUCCAAGGCGUUUAAAUCCCGUCGUAGCCACCA
DNA 1: CAATCTGAATTCCGGTCTCCC
DNA 2: TGGTGGCTACGACGGGATT
B2: CACAGUC (DNA:RNA)
RNA: B1 RNA with A25C, G27C, G28A, C29G, G30U, U31C
DNA 1: CAATCTGAATTCCGGTCTCCC
DNA 2: TGGTGGCTACGACGGGATT
B3: CUUGCGU (DNA:RNA)
RNA: B1 RNA with A25C, A26U, G27U
DNA 1: CAATCTGAATTCCGGTCTCCC
DNA 2: TGGTGGCTACGACGGGATT
B4: CUAUUAG (DNA:RNA)
RNA: GGGAGACCGGAAUUCAGAUUGUCCCUAUUAGUUAAAUCCCGUCGUAGCCACCA
DNA 1: CAATCTGAATTCCGGTCTCCC
DNA 2: TGGTGGCTACGACGGGATT
B5: AGAGUUA (DNA:RNA)
RNA: B1 RNA with A26G, G27A, C29U, G30U, U31A
DNA 1: CAATCTGAATTCCGGTCTCCC
DNA 2: TGGTGGCTACGACGGGATT
B6: UAAGAUU (DNA:RNA)
RNA: B1 RNA with A25U, G27A, C29A, G30U
DNA 1: CAATCTGAATTCCGGTCTCCC
DNA 2: TGGTGGCTACGACGGGATT
B7: AUACAUC (DNA:RNA)
RNA: B4 RNA with C25A, U28C, U29A, A30U, G31C
DNA 1: CAATCTGAATTCCGGTCTCCC
DNA 2: TGGTGGCTACGACGGGATT
B8: UGAACUG (DNA:RNA)
RNA: B4 RNA with C25U, U26G, U28A, U29C, A30U
DNA 1: CAATCTGAATTCCGGTCTCCC
DNA 2: TGGTGGCTACGACGGGATT
B9: CUUUUCG (DNA:RNA)
RNA: B4 RNA with A27U, A30C
DNA 1: CAATCTGAATTCCGGTCTCCC
DNA 2: TGGTGGCTACGACGGGATT
B10: GCUCACU (DNA:RNA)
RNA: B1 RNA with A25G, A26C, G27U, G28C, C29A, G30C
DNA 1: CAATCTGAATTCCGGTCTCCC
DNA 2: TGGTGGCTACGACGGGATT
B11: GGCCUUG (DNA:RNA)
RNA: B4 RNA with C25G, U26G, A27C, U28C, A30U
DNA 1: CAATCTGAATTCCGGTCTCCC
DNA 2: TGGTGGCTACGACGGGATT
B12: GCCUCGU (DNA:RNA)
RNA: B1 RNA with A25G, A26C, G27C, G28U
DNA 1: CAATCTGAATTCCGGTCTCCC
DNA 2: TGGTGGCTACGACGGGATT
B13: GUAGUGG (DNA:RNA)
RNA: B4 RNA with C25G, U28G, A30G
DNA 1: CAATCTGAATTCCGGTCTCCC
DNA 2: TGGTGGCTACGACGGGATT
B14: UAAUAGG (DNA:RNA)
RNA: B4 RNA with C25U, U26A, U29A, A30G
DNA 1: CAATCTGAATTCCGGTCTCCC
DNA 2: TGGTGGCTACGACGGGATT
B15: UAGCCUC (DNA:RNA)
RNA: B1 RNA with A25U, G28C, G30U, U31C
DNA 1: CAATCTGAATTCCGGTCTCCC
DNA 2: TGGTGGCTACGACGGGATT
B16: GAUAAAA (DNA:RNA)
RNA: B1 RNA with A25G, G27U, G28A, C29A, G30A, U31A
DNA 1: CAATCTGAATTCCGGTCTCCC
DNA 2: TGGTGGCTACGACGGGATT
B17: GACGCUG (DNA:RNA)
RNA: B1 RNA with A25G, G27C, G30U, U31G
DNA 1: CAATCTGAATTCCGGTCTCCC
DNA 2: TGGTGGCTACGACGGGATT
B18: ACAUCCC (DNA:RNA)
RNA: B1 RNA with A26C, G27A, G28U, G30C, U31C
DNA 1: CAATCTGAATTCCGGTCTCCC
DNA 2: TGGTGGCTACGACGGGATT
B19: CAAACCG (DNA:RNA)
RNA: B4 RNA with U26A, U28A, U29C, A30C
DNA 1: CAATCTGAATTCCGGTCTCCC
DNA 2: TGGTGGCTACGACGGGATT
B20: UUCAUGA (DNA:RNA)
RNA: B4 RNA with C25U, A27C, U28A, A30G, G31A
DNA 1: CAATCTGAATTCCGGTCTCCC
DNA 2: TGGTGGCTACGACGGGATT

Numbering of substitutions follows the chain as printed; changes in the protein carry UniProt numbers. The list shows a part of the results.

The test deals with T1, RBFOX1 RRM. As to the kind of experiment: EMSA; HiTS-Eq, 1 nM pool, 10 min; buffer printed only for the single-RNA assays: 10 mM Tris pH 7.5, 150 mM NaCl, 3.4 mM EDTA, 0.001% NP-40, 30 C. The note with it: tags: His6 N-terminal (pET28a); label: 5' 32P. In outline:
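Relative association constants, normalised to the cognate motif, were derived by comparing read counts of each RNA species with those of the control reaction. The RNA sequenced was the free fraction, separated by 8% native PAGE after a 10 min equilibration in 50 µL of 1 nM 5′-radiolabelled RNA (7 randomized nucleotides) with increasing concentrations of purified wild-type or mutant RbFox RRM.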
Background: Mobility shift assays separate free from complexed probe on a gel.
For the molecule B1, the binding signal was 0.00908 KA relative to UGCAUGU.

For the molecule B2, the binding signal was 0.00442 KA relative to UGCAUGU.

In the case of B3, the binding signal is 0.0175 KA relative to UGCAUGU.

As to B4, the binding signal was 0.00862 KA relative to UGCAUGU.

Consider B5, for which the binding signal was 0.00482 KA relative to UGCAUGU.

For the molecule B6, the binding signal is 0.00913 KA relative to UGCAUGU.

For the molecule B7, the binding signal is 0.000298 KA relative to UGCAUGU.

For B8, the binding signal is 0.0205 KA relative to UGCAUGU.

Regarding B9, the binding signal was 0.016 KA relative to UGCAUGU.

Turning to B10, the binding signal was 0.00818 KA relative to UGCAUGU.

As to B11, the binding signal was 0.0328 KA relative to UGCAUGU.

In the case of B12, the binding signal was 0.0131 KA relative to UGCAUGU.

In the case of B13, the binding signal was 0.012 KA relative to UGCAUGU.

Consider B14, for which the binding signal was 0.00386 KA relative to UGCAUGU.

Regarding B15, the binding signal was 0.00934 KA relative to UGCAUGU.

With B16, the binding signal was 0.00401 KA relative to UGCAUGU.

In the case of B17, the binding signal is 0.0241 KA relative to UGCAUGU.

For B18, the binding signal is 0.000249 KA relative to UGCAUGU.

B19: the binding signal is 8.34e-05 KA relative to UGCAUGU.

Take B20: the binding signal was 0.0117 KA relative to UGCAUGU.
